Assay results taken from the supplement of paper PMC10126150.
Sequences with one replicate were seen in a single cluster, so their values are uncertain.
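Further: ATP exposure 15 min at 22 °C before imaging.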

Each sequence was assayed on ATP (assay: switch fluorescence ratio, 500 uM ATP over buffer (Cy3 cluster intensity, sum of 5 cycles each) (fold (ratio)); higher = stronger signal-on switching upon ATP binding; sequences stand for … in TCGTCGGCAGCGTCAGATGTGTATAAGAGACAGTTTTTTTTTTTTTTTTTTTTTTTTT…TC). Conditions: aptamer strand: ATP DNA aptamer (quencher-CACCTGGGGGAGTATTGCGGAGGAAGG + anchor), 100 nM annealed; ATP concentration: 500 uM; one replicate.
Method in brief: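 After annealing to 100 nM quencher-labelled ATP aptamer, Cy3-labelled switching-strand clusters on a modified Illumina MiSeq flow-cell were imaged in selection buffer. A second image followed after 15 min with 500 uM ATP at 22 °C, and five such buffer/ATP cycles were done, each separated by NaOH stripping and re-annealing. The fluorescence ratio, averaged per switch-domain sequence, is summed target-cycle over summed buffer-cycle Cy3 intensity per cluster, with clusters outside 100-1000 RFU excluded.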
Sequence TACTCCCTTC has a switch fluorescence ratio of 1.6.
AGGGATCGAT was tested, and the switch fluorescence ratio was 1.02.
GCAAGACCAA showed a switch fluorescence ratio of 1.13.
With AAAAATTCAA the switch fluorescence ratio was 1.01.
In the case of TCATTAGTCA, the switch fluorescence ratio is reported as 0.956.
AATTTTACC was tested, and the switch fluorescence ratio was 1.02.
In the case of TTTAGACGCC, the switch fluorescence ratio is reported as 1.07.
Sequence CGACCCTTGC has a switch fluorescence ratio of 1.33.
ATTACCCCAG gave a switch fluorescence ratio of 1.9.
Sequence TTGAAGAGAA has a switch fluorescence ratio of 0.999.
TAATGGGAA gave a switch fluorescence ratio of 1.02.
Sequence GCGGGTAAGT has a switch fluorescence ratio of 1.03.
With ACGGGCCCGT the switch fluorescence ratio was 0.979.
In the case of CTATTTACTT, the switch fluorescence ratio is reported as 1.05.
AGCGAATAGC showed a switch fluorescence ratio of 1.02.
With TCCTTTTCGG the switch fluorescence ratio was 0.994.
TATGTGGCCC gave a switch fluorescence ratio of 0.974.
In the case of AGAGTCTCAT, the switch fluorescence ratio is reported as 0.92.
CGGAGATCTT was tested, and the switch fluorescence ratio was 1.01.
GGGGGACCCG showed a switch fluorescence ratio of 0.975.
Sequence GGTGGCTGCA has a switch fluorescence ratio of 0.97.
For TTCGTGTTAG, the switch fluorescence ratio was 1.02.
CCCGGACGTA gave a switch fluorescence ratio of 1.04.
For ATGACCTCTG, the switch fluorescence ratio was 0.989.
For CACGGCATTA, the switch fluorescence ratio was 1.28.
For ATGTAAAGTA, the switch fluorescence ratio was 0.981.
GTGTAGCCGG showed a switch fluorescence ratio of 1.
CAAGGTTCAC was tested, and the switch fluorescence ratio was 0.979.
Sequence CGTCGCTATA has a switch fluorescence ratio of 1.65.
Sequence ATGCTCTTGC has a switch fluorescence ratio of 0.998.
With TGGCGGAGGC the switch fluorescence ratio was 0.979.
For TAATGGAAGA, the switch fluorescence ratio was 0.936.
GCAAAATATT was tested, and the switch fluorescence ratio was 1.04.
With TCATTCGACA the switch fluorescence ratio was 1.06.
TGAGTAACAT showed a switch fluorescence ratio of 0.931.
For ATGCGAGTGT, the switch fluorescence ratio was 1.01.
In the case of CAGCCTGTGC, the switch fluorescence ratio is reported as 1.03.
Sequence TACGATTAAA has a switch fluorescence ratio of 1.05.
Work on TGCCCGCACG yielded a switch fluorescence ratio of 1.53.
TATACGTACC was tested, and the switch fluorescence ratio was 1.64.
For AGTCCCCAAA, the switch fluorescence ratio was 1.04.
CATTTTGCAG was tested, and the switch fluorescence ratio was 1.
GGAAGCTATT was tested, and the switch fluorescence ratio was 1.02.
GCCTGGATTA was tested, and the switch fluorescence ratio was 1.
Sequence TTGTCTTTGA has a switch fluorescence ratio of 1.04.
In the case of CCAGAATTGC, the switch fluorescence ratio is reported as 1.08.
For AACCGGGAGG, the switch fluorescence ratio was 0.989.
GGACTGAGGT was tested, and the switch fluorescence ratio was 0.985.
With AAGTTCGTGG the switch fluorescence ratio was 0.991.
CTGACTAAGT gave a switch fluorescence ratio of 1.07.
With AAGTGTTGTT the switch fluorescence ratio was 1.03.
In the case of CAGTTAGGT, the switch fluorescence ratio is reported as 1.05.
CCCTTTGGGG was tested, and the switch fluorescence ratio was 1.06.
TCATAATAAC gave a switch fluorescence ratio of 0.995.
CTCCCTAGCG was tested, and the switch fluorescence ratio was 1.33.
In the case of TGAAAGTAGG, the switch fluorescence ratio is reported as 0.977.
GGCGACTGGT gave a switch fluorescence ratio of 0.93.
TAGAGACGTT was tested, and the switch fluorescence ratio was 0.981.
With ACTGGGAGAG the switch fluorescence ratio was 1.01.
With TCGAGTAGGT the switch fluorescence ratio was 0.969.
In the case of TAGGTGCAG, the switch fluorescence ratio is reported as 1.01.
CCCATGCATT was tested, and the switch fluorescence ratio was 0.979.
With AAGTTTTCTA the switch fluorescence ratio was 1.01.
Work on GGTAAAAGGC yielded a switch fluorescence ratio of 0.984.
For GAGGAACAGA, the switch fluorescence ratio was 0.98.
For TTCTTAGTGA, the switch fluorescence ratio was 1.
With CAAACCCAGG the switch fluorescence ratio was 3.27.
Sequence AGAGGGCAG has a switch fluorescence ratio of 0.965.
Work on CGGCGACGTC yielded a switch fluorescence ratio of 1.02.
For CGCCGACGGA, the switch fluorescence ratio was 1.06.
GCTCAAATGT showed a switch fluorescence ratio of 1.01.
TCGCGAACTG gave a switch fluorescence ratio of 1.07.
CCTGTGCCGA was tested, and the switch fluorescence ratio was 1.09.
Sequence GGGGGATCAA has a switch fluorescence ratio of 0.996.
GAGGAATGGT showed a switch fluorescence ratio of 1.02.
GCTAGTATTG showed a switch fluorescence ratio of 0.993.
ACGGACTAGG gave a switch fluorescence ratio of 1.13.
Sequence AAGTTTGCA has a switch fluorescence ratio of 0.966.
TTATAGAT was tested, and the switch fluorescence ratio was 1.01.
AACCTCACGT was tested, and the switch fluorescence ratio was 1.47.
ATAGATGCTG gave a switch fluorescence ratio of 0.969.
In the case of CCTAGGCACG, the switch fluorescence ratio is reported as 1.36.
With CCGTAATTA the switch fluorescence ratio was 3.92.
Work on GCTACCGCCG yielded a switch fluorescence ratio of 1.2.
Sequence TAGATATCAA has a switch fluorescence ratio of 1.01.
With GTTATGCGTG the switch fluorescence ratio was 0.989.
CTTACCCATT showed a switch fluorescence ratio of 1.46.
In the case of CCCGTCAGAA, the switch fluorescence ratio is reported as 1.2.
TGCTGGGGAG was tested, and the switch fluorescence ratio was 1.04.
Work on TTTGCTCGTT yielded a switch fluorescence ratio of 1.02.
Work on CACTTGTCAT yielded a switch fluorescence ratio of 0.986.
For TTGTAACTGA, the switch fluorescence ratio was 0.992.
CCTCTGGGTT was tested, and the switch fluorescence ratio was 2.34.
Work on GAGATATAC yielded a switch fluorescence ratio of 1.14.
Work on ACTGCCTCTC yielded a switch fluorescence ratio of 1.13.
With TGGATCCAAG the switch fluorescence ratio was 0.996.
For AATTTTCAGT, the switch fluorescence ratio was 1.
GGAAAGGTAC gave a switch fluorescence ratio of 1.07.
AGGTTCGGTT showed a switch fluorescence ratio of 0.977.
Sequence AGGTGTCCAG has a switch fluorescence ratio of 1.03.
For GCTCGGCCCA, the switch fluorescence ratio was 1.01.
GATGTTGCCC was tested, and the switch fluorescence ratio was 1.01.
In the case of TTACAGTCCC, the switch fluorescence ratio is reported as 1.01.
For TCCCAGATGG, the switch fluorescence ratio was 1.1.
Work on TGTGTAAAAT yielded a switch fluorescence ratio of 1.05.
GTCCGTCTCA showed a switch fluorescence ratio of 0.995.
AACTCGGATG was tested, and the switch fluorescence ratio was 0.973.
For TAAGTCAATA, the switch fluorescence ratio was 1.07.
Sequence CTGAAGAGCG has a switch fluorescence ratio of 1.03.
With CTTTTCACAA the switch fluorescence ratio was 0.999.
With CCCGTCTAGT the switch fluorescence ratio was 1.01.
ATCCTGCGG gave a switch fluorescence ratio of 0.961.
ACCAACTCGT gave a switch fluorescence ratio of 1.01.
Sequence TTAGGGAAAG has a switch fluorescence ratio of 1.02.
TTTATAGCTC showed a switch fluorescence ratio of 1.15.
TCAAGGGTTT was tested, and the switch fluorescence ratio was 0.972.
In the case of TTAATTTTTA, the switch fluorescence ratio is reported as 1.02.
Work on CGAGCGGGCT yielded a switch fluorescence ratio of 0.993.
Work on TTAAAACAT yielded a switch fluorescence ratio of 1.02.
GAGACTGTAG gave a switch fluorescence ratio of 1.02.
With GATGGACGGT the switch fluorescence ratio was 1.03.
CTTGCCGGGT gave a switch fluorescence ratio of 1.01.
For TGATTGCACT, the switch fluorescence ratio was 1.02.
With CACAAGGAGG the switch fluorescence ratio was 1.02.
ATACGCCCTT showed a switch fluorescence ratio of 1.15.
For TCGTCCGCGG, the switch fluorescence ratio was 4.2.
Work on GCCTCTGCAC yielded a switch fluorescence ratio of 3.5.
With TGGGCGATTT the switch fluorescence ratio was 1.29.
Sequence ACGGGATACG has a switch fluorescence ratio of 1.09.
Work on GCAGGAATCA yielded a switch fluorescence ratio of 1.05.
Work on GAAGTATTGG yielded a switch fluorescence ratio of 1.04.
CGGCCGTCGG gave a switch fluorescence ratio of 1.04.
With TGCACGAGCA the switch fluorescence ratio was 1.04.
With CAGTAACCTA the switch fluorescence ratio was 1.04.
For TCAGAGGTGC, the switch fluorescence ratio was 1.05.
Work on TGTATAACAG yielded a switch fluorescence ratio of 1.01.
For TGAAGTGGTG, the switch fluorescence ratio was 1.01.
ATTAATTGTA showed a switch fluorescence ratio of 1.01.
AAAAAACAGG showed a switch fluorescence ratio of 0.97.
AGTGCGTAGA was tested, and the switch fluorescence ratio was 1.02.
TGCAGTCAGA was tested, and the switch fluorescence ratio was 1.01.
GCCCAGGACA was tested, and the switch fluorescence ratio was 1.15.
TGTTATGTCA showed a switch fluorescence ratio of 0.985.
ATGTATGCAA showed a switch fluorescence ratio of 1.05.
Sequence ATTATAGGGA has a switch fluorescence ratio of 0.984.
Work on GTGGGTCTGG yielded a switch fluorescence ratio of 1.04.
CCGTGACCGT showed a switch fluorescence ratio of 1.03.
In the case of TGTCTTTTCA, the switch fluorescence ratio is reported as 0.982.
Sequence GCAGGGTTGC has a switch fluorescence ratio of 1.02.
Work on GGAAGAAAGA yielded a switch fluorescence ratio of 0.995.
In the case of GGTAGTCGGC, the switch fluorescence ratio is reported as 0.996.
In the case of TTGAGCTGAG, the switch fluorescence ratio is reported as 1.03.
For TGACGGACAG, the switch fluorescence ratio was 1.01.
AGTGGGAACG showed a switch fluorescence ratio of 0.991.
Work on ATGGGCCTCA yielded a switch fluorescence ratio of 0.978.
TTTTACAGAG was tested, and the switch fluorescence ratio was 0.984.
With GAGCTAATAG the switch fluorescence ratio was 1.97.
Work on CCAAAGGCGG yielded a switch fluorescence ratio of 1.04.
For GAGCGGAGTA, the switch fluorescence ratio was 1.06.
With CCAATGGATT the switch fluorescence ratio was 1.03.
GGATGTGCGG gave a switch fluorescence ratio of 0.993.
For CATACCTTGT, the switch fluorescence ratio was 1.01.
In the case of AGTCAGGAGC, the switch fluorescence ratio is reported as 0.982.
Sequence TCCACTCCGT has a switch fluorescence ratio of 1.14.
In the case of TCTCCGGGCG, the switch fluorescence ratio is reported as 1.31.
For TACGTTTGAG, the switch fluorescence ratio was 1.
CGTTGCGATG was tested, and the switch fluorescence ratio was 0.97.
For GGGTTTCTTA, the switch fluorescence ratio was 0.979.
Work on GACGGAGCGG yielded a switch fluorescence ratio of 3.37.
Sequence TAAACGAACT has a switch fluorescence ratio of 1.24.
GAGGCGTGCT was tested, and the switch fluorescence ratio was 1.
In the case of CTTAGAGTCT, the switch fluorescence ratio is reported as 1.12.
AGATCATATG gave a switch fluorescence ratio of 0.998.
TCTAATTGT was tested, and the switch fluorescence ratio was 1.
GATTAGGGAC showed a switch fluorescence ratio of 1.
TGATAGTTG gave a switch fluorescence ratio of 1.
With TGTGTCCGGT the switch fluorescence ratio was 0.971.
For GAGAGAAATG, the switch fluorescence ratio was 0.973.
With TGAGGAGGAC the switch fluorescence ratio was 0.983.
In the case of ACGGCTTCAT, the switch fluorescence ratio is reported as 1.01.
In the case of GCATAAGTGG, the switch fluorescence ratio is reported as 0.949.
With AAAATCCGCT the switch fluorescence ratio was 1.45.
AGTGTTAACT gave a switch fluorescence ratio of 1.01.
For CAAGTTCTTT, the switch fluorescence ratio was 1.03.
For GTTAGAGTTA, the switch fluorescence ratio was 0.943.
Work on CACATTGAAA yielded a switch fluorescence ratio of 0.997.
Sequence ACGATCGTGT has a switch fluorescence ratio of 0.967.
With TAAAAAATGA the switch fluorescence ratio was 1.03.
In the case of GCTTTTCGTT, the switch fluorescence ratio is reported as 0.981.
TACAATGTAT was tested, and the switch fluorescence ratio was 0.951.
In the case of AACTGTAGCG, the switch fluorescence ratio is reported as 1.06.
GGATAGATCT gave a switch fluorescence ratio of 1.
Work on AATGTATTGG yielded a switch fluorescence ratio of 1.03.
AGTATGCTTG gave a switch fluorescence ratio of 1.1.
Sequence AATTTCGTAT has a switch fluorescence ratio of 1.04.
In the case of AAATGAAGGC, the switch fluorescence ratio is reported as 0.961.
Work on GATCTTTAGC yielded a switch fluorescence ratio of 1.03.
CGGGTCAGCG gave a switch fluorescence ratio of 1.01.
AGCCATCTTG gave a switch fluorescence ratio of 1.01.
In the case of CCTCCCTCCG, the switch fluorescence ratio is reported as 2.81.
